Measured values reported in PubChem BioAssay AID1030 (National Center for Advancing Translational Sciences (NCATS), 2008).
Out of some 220,000 compounds screened, about 16,000 (7.3%) were called active. Inconclusive means that the source gave no clear call. Such entries were picked first, then a sample of the others. The call rests on the fitted dose curve; in most records, active means well fitted inhibition curve with a large enough effect (not every such curve was filed as active); inconclusive means small, poorly fitted or top-dose-only effect, or another doubt; inactive means no such curve, though single readings can be large or run the other way. Potencies of inconclusive entries are left out as doubtful fits.

biological target: Aldehyde dehydrogenase 1A1 (Homo sapiens) (UniProt P00352); assay: qHTS Assay for Inhibitors of Aldehyde Dehydrogenase 1 (ALDH1A1); conditions: Purified ALDH1A1, NADH fluorescence, propionaldehyde substrate; series mostly up to 75.3 µM; activity, negative = inhibition: at the top concentration;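 on activity, negative = inhibition: plate controls were no enzyme wells and a reference inhibitor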
Potency means the concentration at half of the fitted maximal effect; tags describe the fitted curve by direction and shape.

Chain of UniProt P00352 (P00352 whole entry, looked up): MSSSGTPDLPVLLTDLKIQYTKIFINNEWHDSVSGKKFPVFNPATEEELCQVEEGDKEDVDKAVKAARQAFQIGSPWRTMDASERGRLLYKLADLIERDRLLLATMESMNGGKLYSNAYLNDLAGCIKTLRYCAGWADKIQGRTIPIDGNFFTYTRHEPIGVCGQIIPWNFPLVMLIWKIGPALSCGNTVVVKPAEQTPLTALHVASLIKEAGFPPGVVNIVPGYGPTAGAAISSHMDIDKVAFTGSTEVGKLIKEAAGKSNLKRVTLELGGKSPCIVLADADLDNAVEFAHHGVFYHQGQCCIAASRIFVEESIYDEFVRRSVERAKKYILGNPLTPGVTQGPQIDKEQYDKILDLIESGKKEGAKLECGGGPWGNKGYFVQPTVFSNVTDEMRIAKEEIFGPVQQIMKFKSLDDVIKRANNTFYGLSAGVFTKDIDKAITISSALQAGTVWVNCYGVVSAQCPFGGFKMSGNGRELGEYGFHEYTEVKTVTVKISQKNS

Compound | Potency | activity, negative = inhibition
CN(C)S(=O)(=O)c1ccc(Cl)c(NC(=O)COC(=O)CNC(=O)c2ccco2)c1 | inconclusive [inhibitor, single point] | –
O=C1CSC(c2cccc([N+](=O)[O-])c2)N1c1c(F)cccc1F (configuration not stated) | inconclusive [inhibitor, partial curve] | –
O=C1C2N=NN(CC(=O)N3N=C(c4cccc5ccccc45)CC3c3ccccc3)C2C(=O)N1c1ccccc1 (configuration not stated) | inconclusive [inhibitor, single point] | –
COC(=O)c1sc2nc3c(cc2c1N)COC(C)(C)C3 | inconclusive [inhibitor, partial curve] | –
O=c1cc(CN2CCN(c3ccc(F)cc3)CC2)nc2sccn12 | inconclusive [inhibitor, single point] | –
O=C(NC(=S)NNS(=O)(=O)c1ccc(Cl)cc1)c1cccnc1 | active: 7.94 µM | –
S=c1[nH]nc(COc2ccccc2)n1C1CCCCC1 | inconclusive [inhibitor, partial curve] | –
Cn1c(=O)oc2cc(S(=O)(=O)N3CCCC(C(=O)NC4CCCc5ccccc54)C3)ccc21 (configuration not stated) | – | inactive: 2.81%
COc1ccccc1-n1c(SCC(=O)Nc2cccc3ccccc23)nc(O)cc1=O | inconclusive [inhibitor, single point] | –
CC(C)CN(C(=O)CSc1nnnn1-c1ccccc1)c1c(N)n(CC(C)C)c(=O)[nH]c1=O | inconclusive [inhibitor, single point] | –
CC=CC1=C(C(=O)O)N2C(=O)[C@H](NC(=O)[C@H](N)c3ccc(O)cc3)[C@@H]2SC1 | inconclusive [inhibitor, partial curve] | –
CCC(c1c(C)[nH]oc1=O)c1c(C)[nH]oc1=O | inconclusive [inhibitor, single point] | –
Cc1cc(C(=O)N2CCN(C/C=C/c3ccccc3)CC2)cs1 | inconclusive [inhibitor, single point] | –
c1nnc(NCNc2nncs2)s1 | – | inactive: 5.89% [at 13.5 µM]
COc1ccc(S(=O)(=O)CCC(=O)NCCc2ccc(Cl)cc2)cc1 | inconclusive [inhibitor, single point] | –
CCN(CC)S(=O)(=O)c1ccc(Cl)c(C(=O)Nc2nncs2)c1 | inconclusive [inhibitor, single point] | –
CCOC(=O)c1sc(=NC(=O)c2cccc(C)c2)n(C)c1C | inconclusive [inhibitor, partial curve] | –
COC(=O)c1ccc(NC2CC(=O)N(c3ccccc3C)C2=O)cc1 (configuration not stated) | active: 12.6 µM | –
COC(=O)C1=C(C)N(c2ccc(Cl)c(Cl)c2)C(=O)C1 | inconclusive [inhibitor, partial curve] | –
Cc1ccc(C)c(NC(=S)NNC(=O)c2csc(C)c2)c1 | inconclusive [inhibitor, single point] | –
c1ccc(C2=NNC(=NC3CC3)SC2)cc1 | inconclusive [inhibitor, single point] | –
CS(=O)(=O)N1CCC2(CCCN(C(=O)Nc3ccccc3)C2)CC1 | – | inactive: 13.2%
Cc1c(Cl)cnc(NC(=O)COC(=O)c2ccc([N+](=O)[O-])s2)c1Cl | active: 11.2 µM | –
Cc1nc2sc(C(=O)OC(C)C)c(N)c2c(C)c1C | inconclusive [inhibitor, full curve] | –

Compound | Potency | activity, negative = inhibition
O=[N+]([O-])c1cccnc1N1CCC(c2cc(-c3ccc(Cl)cc3)n[nH]2)CC1 | inconclusive [inhibitor, single point] | –
CCOc1ccc(Cn2c(SCCCCC#N)nc3c2c(=O)n(C)c(=O)n3C)cc1OCC | inconclusive [inhibitor, single point] | –
N#C/C(=C\c1ccc(-c2ccc(Br)cc2)o1)C(=O)NCCc1c[nH]c2ccccc12 | – | inactive: 6.44%
COc1ccc2[nH]c(C(=O)Nc3ccc(F)cc3Br)cc2c1 | inconclusive [inhibitor, single point] | –
CC1CCc2c(sc3ncnc(NCCCOC(C)C)c23)C1 (configuration not stated) | – | inactive: -6.44%
Cc1cc(C(=O)NCc2cccs2)c(C)o1 | – | inactive: -9.52%
O=C(COc1ccc2c(c1)OCO2)NC12CC3CC(CC(C3)C1)C2 | inconclusive [inhibitor, single point] | –
C/C(Cn1cnc([N+](=O)[O-])n1)=N/NC(=O)COc1ccccc1Cl | active: 14.1 µM | –
O=C(COc1ccc([N+](=O)[O-])cc1)Nc1ccc(C(=O)NCc2cccnc2)cc1 | – | inactive: -2.38%
Cc1c(C(=O)N(C)C2CCCCC2)sc2nc3ccc(N)cc3n12 | inconclusive [inhibitor, single point] | –
Cc1nn(-c2ccccc2)nc1C(=O)Nc1ccc2[nH]ncc2c1 | inconclusive [inhibitor, single point] | –
CCCC(=O)Nc1nc(C)c(-c2csc(Nc3ccccc3OC)n2)s1 | inconclusive [inhibitor, single point] | –
Cc1ccc(-c2nn[nH]n2)cc1 | – | inactive: 3.49%
O=C(CSc1nnc(-c2ccccc2)n1-c1ccccc1)NCc1ccco1 | inconclusive [inhibitor, partial curve] | –
O=C(c1nn(Cc2ccccc2)c(=O)c2ccccc12)N1CCN(c2ccccn2)CC1 | inconclusive [inhibitor, single point] | –
CC1(C)Cc2c(c(-c3ccco3)nc3sc4c(NCCO)ncnc4c23)CO1 | inconclusive [inhibitor, full curve] | –
COc1ccccc1-c1nc(NCCNC(C)=O)c2ccccc2n1 | inconclusive [inhibitor, single point] | –
CCOC(=O)/C=C/c1cnn(-c2ccccc2)c1 | – | inactive: -1.53%
Cc1ccc(N2CN(Cc3ccco3)CNC2=S)cc1 | inconclusive [inhibitor, single point] | –
Cc1cccc(-n2nc(C(=O)c3ccco3)cc(-c3nc4ccccc4[nH]3)c2=N)c1 | – | inactive: -1.73%
Cc1cc(C)[n+](C)n1CC(O)Cn1c2ccccc2c2ccccc21 (configuration not stated) | – | inactive: 6.76%
COc1ccc(OC)c(C(=O)COC(=O)c2ccc(C)o2)c1 | inconclusive [inhibitor, single point] | –
CCOC(=O)CCc1c(C)c2ccc(OC(C)C(=O)OCC)c(C)c2oc1=O (configuration not stated) | inconclusive [inhibitor, partial curve] | –
CC(C)CN1CCN(C2CCN(C(C)C)CC2)C(CCO)C1 (configuration not stated) | – | inactive: 5.9%

Compound | Potency | activity, negative = inhibition
COc1ccc(-c2cn3ccc4ccccc4c3n2)cc1 | inconclusive [inhibitor, single point] | –
CCOc1cccc(CNCc2cccnc2)c1OCc1ccccc1 | inconclusive [inhibitor, single point] | –
O=c1c2ccccc2sn1-c1cc(S(=O)(=O)N2CCOCC2)ccc1N1CCOCC1 | active: 0.0562 µM | –
CCOCCCNC(=O)C(NC(=O)c1ccccc1O)c1ccc(C)cc1 (configuration not stated) | inconclusive [inhibitor, single point] | –
COc1ccccc1CNC(=O)N/C=C/c1ccc(Cl)cc1 | active: 25.1 µM | –
COc1ccc(C(=O)NC(=S)NNC(=O)c2ccc(NC(=O)C(C)C)cc2)cc1 | inconclusive [inhibitor, single point] | –
CCOC(=O)C1CCCN(C(=O)c2cccc(S(=O)(=O)N3CCOCC3)c2)C1 (configuration not stated) | – | inactive: -5.73%
COc1cccc(NC(=O)CN(C)C(C)C(=O)Nc2ccc(S(=O)(=O)N3CCCC3)cc2)c1 (configuration not stated) | inconclusive [inhibitor, single point] | –
C=CCn1c(SCc2nc3sc(C(=O)O)c(C)c3c(=O)[nH]2)nnc1-c1ccc(F)cc1 | inconclusive [inhibitor, single point] | –
COc1ccc(S(=O)(=O)N2CCC(C(=O)NCCC3=CCCCC3)CC2)cc1OC | – | inactive: -7.3%
COc1ccc(/C=C/C(=O)NC(=S)Nc2ccc(C(=O)O)cc2)cc1 | inconclusive [inhibitor, single point] | –
CCCCC1(C)OC(=O)C(=Cc2ccc(N(C)C)cc2)C(=O)O1 (configuration not stated) | active: 1.12 µM | –
CCOc1ccc(N2C(=O)CC(NCC3CCCO3)C2=O)cc1 (configuration not stated) | – | inactive: 6.57%
CCCn1nnnc1SCC(=O)NCc1ccc(OC)cc1 | inconclusive [inhibitor, partial curve] | –
CCOC(=O)c1c(N)sc2c1CCC1C(=O)N(C3CCCCC3)C(=O)C21 (configuration not stated) | active: 12.6 µM | –
O=C1NC(=O)/C(=C/c2ccccc2OCc2ccccc2)S1 | inconclusive [inhibitor, single point] | –
O=C(c1ccc(-c2cccc(Cl)c2Cl)o1)N1CCOCC1 | inconclusive [inhibitor, single point] | –
Cc1coc(C)c1C(=O)CC1(O)C(=O)N(Cc2ccccc2)c2ccccc21 (configuration not stated) | active: 4.47 µM | –
Cc1ncc(COP(=O)(O)O)c(C)c1O | – | inactive: 3.21% [at 13.5 µM]
Cc1ccc(-c2csc3nc4c5ccccc5c(NCCCN(C)C)nn4c(=O)c23)cc1 | inconclusive [inhibitor, partial curve] | –
Cc1nnc(NC(=O)CSc2nnc(Cc3cccn3C)n2C)s1 | active: 22.4 µM | –
O=C(Nc1ccc(Cl)cn1)c1cc2c(s1)-c1ccccc1OC2 | inconclusive [inhibitor, partial curve] | –
CN(C)c1ncnc2ccc(-c3cccc(C#N)c3)cc12 | active: 31.6 µM | –
O=C1CN(C(=O)CN2C(=O)NC3(CCCCC3)C2=O)c2ccccc2N1 | active: 15.8 µM | –
